# Laboratory results reported in PubChem BioAssay AID686979 (National Center for Advancing Translational Sciences (NCATS), 2013).
# Hit rate of the full screen: of about 420,000 compounds, about 50,000 (12%) were called active. Inconclusive results, whose numbers are uncertain, are shown with a selection of clear calls. Calls follow the shape of the dose curve; as a rule, active = well fitted inhibition curve with a large enough effect; inconclusive = small, poorly fitted or top-dose-only effect; inactive = flat fitted curve, though single readings scatter. Potencies of inconclusive entries are left out as doubtful fits.
# Test: qHTS for Inhibitors of human tyrosyl-DNA phosphodiesterase 1 (TDP1): qHTS in cells in presence of CPT; also: nearly all actives have a fitted effect of over 55% in size
# Conditions: chicken DT40 Tdp1-/-;hTDP1 cells + 20 nM CPT, ATP luminescence, 48 h; activity change, negative = growth inhibition: at 46.2 µM (top of the series) unless noted
# How it was run: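 Chicken DT40 Tdp1-/- cells complemented with human TDP1, 400 cells/well, exposed to compounds plus 20 nM camptothecin for at least 48 h at 37 C; viability read as ATP content by CellTiter-Glo luminescence.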
# % is scaled to controls: 0 for no effect and ±100 for the full control effect; potency is read from the fitted curve at half-maximal effect; tags tell the direction and shape of the fitted curve.
SMILES,Potency,"activity change, negative = growth inhibition"
C/C(=N\NC(=S)Nc1ccc(C(C)C)cc1)c1ccc2c(c1)OCO2,"inconclusive [inhibitor, single point]",
CNC(=O)/C=C/c1cc(C(=O)c2ccc(Cl)cc2Cl)cn1C,"inconclusive [inhibitor, single point]",
CC(=O)NCCC1CCCCN1Cc1nc(Cc2cccc(C(F)(F)F)c2)no1 (centres undefined),,inactive: -4.2%
CC1(C(=O)NS(=O)(=O)C2CC2)CCCN(C(=O)c2ccc3ccccc3c2)C1 (centres undefined),active: 0.517 µM,
CSc1ccc(Cn2c(C)c(C(=O)NCc3cccc(C(F)(F)F)c3)sc2=O)cc1,"inconclusive [inhibitor, single point]",
COc1cc(/C=C/C(=O)N2CCN(c3n[nH]c(=O)[nH]c3=O)CC2)cc(OC)c1OC,,inconclusive: -3.65% [inhibitor]
CCOC(=O)CSC1=C(C#N)C(c2ccc(C)s2)CC(=O)N1 (centres undefined),active: 5.17 µM,
CC(=O)c1cc(C#N)c(Oc2cc(C)cc(C)c2)nc1C,"inconclusive [inhibitor, single point]",
Cc1ccc(-c2csc(=S)n2CC(=O)OCC(=O)NCc2ccco2)cc1,"inconclusive [inhibitor, single point]",
O=C(CSCc1ccc(Cl)cc1)Nc1ccc(S(=O)(=O)N2CCCCCC2)cc1,"inconclusive [inhibitor, single point]",
Cc1ccc(NC(=O)COc2ccc3oc4c(c3c2)CCCC4)nc1,"inconclusive [inhibitor, partial curve]",
CCOC(=O)c1cnc(-n2nc(C)cc2C)nc1Oc1ccccc1F,"inconclusive [inhibitor, single point]",
CC(NC(=O)COc1ccc(-c2nnco2)cc1)c1ccc(Cl)cc1Cl (centres undefined),"inconclusive [inhibitor, single point]",
Cc1noc(C)c1COc1ccccc1C(=O)NC(C)c1ccc(Cl)cc1 (centres undefined),"inconclusive [inhibitor, single point]",
Cc1cccc(N(CC(=O)N=Nc2c(O)[nH]c3ccccc23)S(C)(=O)=O)c1C,"inconclusive [inhibitor, single point]",
COc1ccc(CCNc2cc(N3CCN(C(=O)c4ccccc4F)CC3)ccc2[N+](=O)[O-])cc1OC,active: 4.61 µM,
Cc1ccc(S(=O)(=O)N(C)c2ccc(C(=O)N3CCc4ccccc4C3)cc2)cc1,"inconclusive [inhibitor, single point]",
OCCN1CCN(c2ncnc3c2c(-c2ccccc2)cn3-c2ccc(Br)cc2)CC1,"inconclusive [inhibitor, single point]",
COc1ccc(C)cc1NC(=O)C(=O)NCCc1csc2nc(-c3ccccc3F)nn12,,inactive: -5.64%
CCN1CCN(C(=O)c2[nH]c3ccc(OC)cc3c2C)CC1,,inactive: -15.2%
CCN(CC)c1ccc(/C=C/c2c(C)cnc3ccccc23)cc1,"inconclusive [inhibitor, single point]",
Nc1ncnc2c1ncn2[C@@H]1O[C@H](CCC(=O)NCc2ccccc2)[C@@H](O)[C@H]1O,"inconclusive [inhibitor, single point]",
Cc1noc(C)c1S(=O)(=O)N(C)C[C@H]1Oc2ccc(NC(=O)NC(C)C)cc2C(=O)N([C@H](C)CO)C[C@@H]1C,,inactive: 23.8%

SMILES,Potency,"activity change, negative = growth inhibition"
CC1CCCN(CCCNC(=O)C2CCC(CNS(=O)(=O)c3cccc4nsnc34)CC2)C1 (centres undefined),,inactive: -21.2%
O=c1c2oc3ccccc3c2n(Cc2ccccc2)c(=O)n1Cc1ccco1,,inactive: -21.5%
O=C(c1ccco1)N1CCN(C(=O)c2cnn3c(C(F)(F)F)cc(-c4cccs4)nc23)CC1,,inactive: -23.8%
COc1cccc(NC(=O)CN(C)C(=O)CC(C)c2ccccc2)c1 (centres undefined),,inactive: -10.5%
COc1ccc(C2(C(=O)N3CCOCC3)CCCC2)cc1,,inactive: 3.94%
O=C(Cn1nnc2sc(-c3ccccc3)cc2c1=O)Nc1cccc(C(F)(F)F)c1,"inconclusive [inhibitor, single point]",
COc1ccc(S(=O)(=O)N2CCCC2CNC(=O)C(=O)NCc2ccc(C)cc2)cc1 (centres undefined),"inconclusive [inhibitor, single point]",
CCOc1ccc(CCNc2ncnc3onc(-c4ccc(Cl)cc4)c23)cc1,active: 9.2 µM,
CC(=O)c1sc(NC(=O)CCCc2nc3ccccc3c(=O)[nH]2)nc1-c1ccccc1,"inconclusive [inhibitor, single point]",
CCCCn1c(O)c(N=Nc2ccccc2O)c2ccccc21,active: 23.1 µM,
CCCCNC(=O)C1CCN(Cc2ccc(OCc3ccccc3)cc2)CC1,"inconclusive [inhibitor, partial curve, poor fit]",
Cn1c(NCc2ccccc2F)nc2cc(-c3ccsc3)sc2c1=O,"inconclusive [inhibitor, single point]",
Cc1cccc(-c2nc3scc(CCNS(=O)(=O)c4ccc(F)cc4C)n3n2)c1,"inconclusive [inhibitor, single point]",
CC(C)(C)c1ccc(OCC(=O)N2CCN(c3ccccn3)CC2)cc1,"inconclusive [inhibitor, single point]",
Cc1ccc(NC(=O)c2cc(S(=O)(=O)NCCC3=CCCCC3)ccc2F)cc1C,"inconclusive [inhibitor, single point]",
COc1cccc(/C=N/NC(=O)c2nnn(-c3nonc3N)c2CN(C)C2CCCCC2)c1,"inconclusive [inhibitor, partial curve]",
O=C(CSc1ccc(Cl)cc1)N1CCN(c2ccc([N+](=O)[O-])cc2Cl)CC1,"inconclusive [inhibitor, single point]",
C[C@H](CO)N1C[C@H](C)[C@H](CN(C)S(=O)(=O)c2ccc(Cl)cc2)OCc2cnnn2CCCC1=O,"inconclusive [inhibitor, single point]",
Clc1ccccc1-c1ccc(CN2CCN(c3ccccc3)CC2)o1,,inactive: -25.8%
Cc1c(NC(=O)c2cc(-c3ccc(Br)cc3)on2)c(=O)n(-c2ccccc2)n1C,"inconclusive [inhibitor, single point]",
CCN(Cc1ccc2c(c1)OCCO2)S(=O)(=O)c1ccc(NC(C)=O)cc1,"inconclusive [inhibitor, single point]",
CCN(CC)C(=O)c1[nH]cnc1C(=O)Nc1ccc(C)cc1,,inactive: -8.11%
CSc1cccc(NS(=O)(=O)c2ccc(C(C)=O)cc2)c1,"inconclusive [inhibitor, partial curve]",

SMILES,Potency,"activity change, negative = growth inhibition"
O=C(NCc1ccccc1F)C1CCCN(C(=O)NC2CCCCC2)C1 (centres undefined),,inactive: -4.3%
COc1ccc(CC(=O)NNS(=O)(=O)c2ccccc2[N+](=O)[O-])cc1,,inactive: -3.31%
O=[N+]([O-])c1ccccc1N/N=C/c1c[nH]c2ccccc12,"inconclusive [inhibitor, single point]",
Cc1ccccc1C1N=C2Oc3ccccc3C=C2C(=O)N1 (centres undefined),active: 6.51 µM,
COc1ccccc1CN1CC(C(=O)N2CCC(OC)CC2)CCC1=O (centres undefined),,inactive: -8.19%
Cc1ccc(OCCC(=O)OCC(=O)N2CCN(S(=O)(=O)c3ccc(Cl)cc3)CC2)cc1,"inconclusive [inhibitor, single point]",
S=C1CCSc2ccc(Cl)cc2N1,"inconclusive [inhibitor, single point]",
COc1ccc(Nc2sc(C(=O)c3ccccc3)c(N)c2C(=O)Nc2cc(C)ccc2C)c(OC)c1,"inconclusive [inhibitor, single point]",
O=C(Nc1ccccc1)Nc1csc2ccccc12,"inconclusive [inhibitor, single point]",
COc1ccc(C(=O)CCC(=O)Nc2cccnc2)c(OC)c1,"inconclusive [inhibitor, full curve, poor fit]",
O=C(c1cccc(C(=O)N2CCN(c3ccccc3F)CC2)n1)N1CCN(c2ccccc2F)CC1,"inconclusive [inhibitor, single point]",
O=C(NCCNC(=O)c1cc(Cl)ccc1Cl)c1cnccn1,,inactive: -5.17%
Cc1ccc(-c2nc3cnccn3c2Nc2ccc3c(c2)OCCO3)o1,"inconclusive [inhibitor, single point]",
O=C(CSc1nnc2ccccn12)Nc1ccccc1C(=O)NC1CC1,,inactive: -10.4%
CCOC(=O)c1sc2nc3c(SCCC(=O)O)cc(C(=O)c4cc(OC)ccc4O)cn3c(=O)c2c1C,active: 3.66 µM,
Cc1cc(C)cc(NC(=O)CN(c2ccc(F)cc2)S(C)(=O)=O)c1,"inconclusive [inhibitor, single point]",
O=C1COc2ccc(-c3csc(-c4ccc(F)cc4)n3)cc2N1,"inconclusive [inhibitor, single point]",
COc1cccc(CNC(=O)CCCN2C(=O)CSc3c2c(C)nn3-c2ccccc2)c1OC,"inconclusive [inhibitor, single point]",
COC(=O)c1ccc(NC(=O)C(=O)c2c[nH]c3ccccc23)cc1,,inactive: -0.926%
COC(=O)c1cc(S(=O)(=O)Nc2ccc(C)cn2)c[nH]1,,inactive: -22.6%
CCOC(=O)CN(C(=O)CSc1nnc2c(n1)[nH]c1ccc(F)cc12)c1ccccc1,active: 20.6 µM,
CC(=O)C[C@H]1c2cc(C(F)(F)F)ccc2S(=O)(=O)N1c1ccccc1,"inconclusive [inhibitor, single point]",
CCN1C(=O)c2ccccc2S(=O)c2ccc(C(=O)N3CCN(c4ccccc4)CC3)cc21 (centres undefined),"inconclusive [inhibitor, single point]",
